Experimental data as given in PubChem BioAssay AID493208 (National Center for Advancing Translational Sciences (NCATS), 2011).
The campaign covered roughly 44,000 compounds. About 340 (0.77%) were called active. Not shown: some 5% with an inconclusive outcome. The call rests on the fitted dose curve; in most records, active means well fitted inhibition curve with a large enough effect; inconclusive means small, poorly fitted or top-dose-only effect; inactive means flat fitted curve, though single readings scatter. The list shows a part of the results.

experiment: Acumen qHTS Assay for Inhibitors of the mTORC1 Signaling Pathway in MEF (Tsc2-/-, p53-/-) Cells: Sytravon; conditions: phospho-rpS6 immunofluorescence/PI, 24 h; series mostly up to 38.3 µM; activity change, negative = inhibition: at the top concentration;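 further: plate controls were DMSO for no effect and rapamycin for full effect; nearly all actives have a fitted effect of over 50% in size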
Procedure, shortened: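 Readout is phospho-S6 Alexa 488 signal normalized to PI per well, reported as % active cells with thresholds set from rapamycin (7.5 nM) and DMSO controls. Cells: Tsc2-/-, p53-/- MEFs, 24 hrs compound at 37 C; PI cell number serves as viability.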

Activity change, negative = inhibition, inactive:
CC(=O)c1ccc(NC(=O)c2nc(-c3ccc(C)cc3)n3c2CCCCC3)cc1 -1.62%, Cc1ccc(OCC(=O)Nc2nc(-c3ccc(Br)cc3)ns2)cc1C -20.5%, COc1ccc(CNc2nc3ccccc3c3nc(-c4ccccc4)nn23)cc1 -3.21%, Cc1ccccc1OCC(=O)Nc1ccc2nc(SCc3ccccc3)sc2c1 -7.07%, COc1ccc(-c2ccc(NS(=O)(=O)c3cccc(C)c3)cc2)nn1 -14%, COc1ccc(OCC(=O)NC2CC(=O)N(c3ccc4c(c3)OCCO4)C2)cc1 (stereo unspecified) -2.14%, CCc1ccc(NS(=O)(=O)c2c(C)nc3sc(CC)nn3c2=O)cc1 -25.7%, Cc1ccc(C)c(CN2C(=O)C3(c4ccccc42)N(c2ccc(Cl)cc2)C(=O)CS3(=O)=O)c1 (stereo unspecified) 3.64%, COc1ccc(CCNC(=O)C2CCN(c3nc4ccccc4nc3C(F)(F)F)CC2)c(OC)c1 2.66%, CC(=O)N1c2ccccc2CC1C(=O)NCc1cccc(Cl)c1 (stereo unspecified) -15.8%, COc1ccc(-c2cc(C)no2)cc1S(=O)(=O)N1CCN(c2ccccc2F)CC1 0.974%, COc1ccc(CCNc2nc3c(-c4cccc(F)c4)nnn3c3ccccc23)cc1OC 2.87%, Cc1cccc(NC(=O)CSc2nc(-c3ccccc3Cl)nc3c2Cc2c(CO)cnc(C)c2O3)c1C -1.31%, CC1CCN(c2nc3c(S(=O)(=O)c4ccc(Cl)cc4)nnn3c3ccsc23)CC1 -7.88%, COCCNC(=O)C1CCN(c2nc3ccccc3nc2C(F)(F)F)CC1 7.25%, CCc1ccccc1NC(=O)c1ccc(CN2C(=O)CCn3nc(C)cc32)cc1 -1.39%, Cc1ccccc1NC(=O)CSc1cn(CC(=O)N(C(C)C)C(C)C)c2ccccc12 -11.2%, COc1cc2c(cc1OC)n(Cc1ccc([N+](=O)[O-])cc1)c(=O)n1nc(-c3ccccc3)nc21 -0.0379%, COc1cc2c(cc1OC)C(COc1ccc3c(C)cc(=O)oc3c1)N(C(=O)c1ccccc1F)CC2 (stereo unspecified) -15%, CCOc1ccc(NC(=O)CSc2nc3c([nH]c4ccccc43)c(=O)n2-c2cc(C)cc(C)c2)cc1 -0.328%, O=C(COc1cccc(Cl)c1)N1CCC(c2nc3ccccc3o2)CC1 -0.298%, Cc1cccc(N2CCN(C(=O)c3cnc4c(C)cccn4c3=O)CC2C)c1 (stereo unspecified) -0.323%, O=C(NCc1ccccc1Cl)C1CCCN(C(=O)c2cnn(-c3ccc(F)cc3)c2-n2cccc2)C1 (stereo unspecified) -0.341%, Cc1nc2c(-c3ccccc3)c(C)nn2c(C)c1CCC(=O)NCCc1ccccc1 -7.94%, CC(C)c1ccc(NC(=O)N2CCN(c3ccc(Cl)c(Cl)c3)CC2)cc1 -18%, CCOC(=O)c1c(C)oc2c1cc(NS(=O)(=O)c1ccc(C)cc1)c1ccccc12 -3.37%, O=C(NC1CC(=O)N(c2ccc(Cl)cc2)C1)C1CCCC1 (stereo unspecified) -9.78%, Cc1ccc(N2CCN(C(=O)c3c(C)oc4ncnc(N5CCCCC5)c34)CC2)c(C)c1 2.28%, COc1ccc(NC(=O)CSc2nc3c(oc4ccccc43)c(=O)n2-c2ccccc2)cc1OC -5.25%, CCC(=O)N1c2ccccc2C(C)(c2ccccc2)CC1(C)C (stereo unspecified) -7.33%, CN1CCN(C(=O)c2ccc3c(c2)N(Cc2ccc(F)cc2)C(=O)c2ccccc2S3=O)CC1 (stereo unspecified) -0.409%, CC(C)(C)OC(=O)N1CCC(c2c(C(=O)NCc3ccccc3)cnn2-c2ccc(F)cc2)CC1 -2.08%, CCOc1ccccc1NC(=O)c1cc(S(=O)(=O)N2CCOCC2)cn1C -0.984%, O=C(CSc1nc(-c2ccccc2)no1)N1CCN(c2ccccc2)CC1 -3.66%, CCN1CCc2c(sc(-n3cccc3)c2C(C)NC(=O)Nc2cc(Cl)c(OC)cc2OC)C1 (stereo unspecified) 0.512%, Cc1sc2c(c1C)c(=O)n(Cc1ccccc1)c(=O)n2CC(=O)N(C)c1ccccc1 -0.157%, CCCNC(=O)c1cnn2c(C(F)F)cc(-c3ccccc3)nc12 -5.23%, COc1ccc(CCNc2oc(COc3cccc(C)c3)nc2C#N)cc1OC -25.9%, CC(C)Oc1ccc(NC(=O)c2cc3ccccc3o2)cc1 -11.1%, COc1ccc(-c2nc(Cn3c(=O)cc(-c4ccccc4)c4c(C)nn(C)c43)c(C)o2)cc1OC 0.102%, CCOc1ccc(Nc2nc3c(S(=O)(=O)c4ccc(CC)cc4)nnn3c3ccc(Cl)cc23)cc1 1.21%, CC1CCN(S(=O)(=O)c2ccc3c(ccc(=O)n3CC(=O)NCc3ccc(Cl)cc3)c2)CC1 -0.989%, CC(=O)c1cccc(NC(=O)CCc2nc3cccnc3n2Cc2cccs2)c1 -9.7%, CC(=O)N1CCc2cc(Br)cc(S(=O)(=O)NCCc3ccc(Cl)cc3)c21 -16.5%, O=C(c1cccn1-c1nnc(N2CCCCC2)s1)N1CCN(c2ccc(Cl)cc2)CC1 2.12%, COc1ccc(CCNc2nc3ccc(C)cc3n3cnnc23)cc1OC -0.581%, CCOC(=O)CSc1nc(-c2ccc(F)cc2)cc(C(F)(F)F)c1C#N 3.45%, CCNc1nc(NC(C)(C)C)nc(Oc2ccc(=O)n(-c3ccccc3)n2)n1 -9.03%, CCn1c(C(=O)N2CCC(C(=O)N3CCN(c4ccc(OC)cc4)CC3)CC2)cc2sccc21 -4.22%, COc1ccc(Cl)cc1N=C1NC(=O)CC(C(=O)Nc2ccccc2C(F)(F)F)S1 (stereo unspecified) -0.966%, CN(C)c1ccc(C(=O)Nc2c(C(=O)NC(C)(C)C)oc3ccccc23)cc1 -0.11%, Cc1cc(C)cc(NC(=O)C(CC(C)C)NC(=O)C2CCCCC2)c1 (stereo unspecified) 5.36%, CC(C)Oc1ccc(CNC(=O)c2ccc3nc(C(C)C)oc3c2)cc1 -1.7%, COc1ccc(-c2nc3scc(CCNS(=O)(=O)c4c(C)cc(C)cc4C)n3n2)cc1OC -6.43%, CCc1nn2c(=O)cc(COC(=O)c3ccc4c(c3)OCO4)nc2s1 11.2%, O=C(NCCn1cc(SCc2ccccc2)c2ccccc21)c1cccs1 -12%, CCCc1cc(=O)[nH]c(Nc2ccccc2O)n1 -3.18%, Cc1cc(C)cc(C(=O)Nc2cccc(-c3nc4ncccc4o3)c2C)c1 0.833%, CC(C)(C)C1CCc2c(sc(NC(=O)c3ccccc3F)c2C(=O)NCc2ccco2)C1 (stereo unspecified) -0.48%, CC(=O)c1cccc(NC(=O)c2ccc(Cl)c(S(=O)(=O)N3CCOCC3)c2)c1 -7.41%, CC(=O)c1c(C)n(-c2ccc(Cl)cc2)c2ccc(OC(=O)COc3ccccc3)cc12 -5.79%
